Source: PubChem BioAssay AID652106 (National Center for Advancing Translational Sciences (NCATS), 2013)
Screen size: about 370,000 compounds; about 500 (0.14%) were called active. This list was built around the results that the source calls inconclusive (neither active nor inactive); the mix of calls is not that of the screen. The call rests on the fitted dose curve; in most records, active means well fitted activation curve with a large enough effect; inconclusive means small, poorly fitted or top-dose-only effect; inactive means no such curve, though single readings can be large or run the other way. Potencies beside an inconclusive call are fits to weak or partial responses and may not hold up.

Test: qHTS of alpha-syn Inhibitors; further: nearly all actives have a fitted effect of over 65% in size; on growth rescue (activation): % of control where 0% means no effect
Settings: Yeast expressing alpha-synuclein, BacTiter-Glo, 24 h; Potency: growth rescue unless noted; growth rescue (activation): at 46.1 µM (top of the series) unless noted
How it was run: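 Galactose-induced alpha-syn yeast (OD600=0.02, raffinose-pregrown) + pinned cpd, 24 hr, 30 deg C; growth by BacTiter-Glo luminescence. Growth restoration scores as activation.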
Potency means the concentration at half of the fitted maximal effect; tags describe the fitted curve by direction and shape.

Potency, active:
CC(C)(C)NC(=O)C(c1ccc(C#N)cc1)n1c(=O)c(-c2cc3ccccc3[nH]2)nc2ccccc21 (configuration not stated) 12.6 µM
CCCC1(C)C(C#N)(C#N)C1(C#N)C#N 14.6 µM
COc1ccc(N(C(=O)c2ccncc2)S(=O)(=O)c2ccc(Cl)cc2)cc1 10 µM
CC(C)(C)C(=O)NC(=S)NNC(=O)c1ccc(Cl)cc1Cl 5.01 µM
CN1CCc2c(sc3nc(SCC(=O)N4CCCCC4)n(-c4ccccc4)c(=O)c23)C1 5.62 µM

Potency, inconclusive:
CC(C)[C@H](NC(=O)c1ccccc1F)C(=O)OCCN1C(=O)c2ccccc2C1=O 5.62 µM [activator, single point]
O=C(Nc1ccc2c(c1)OCCO2)C(C1CC1)n1c(=O)c(-c2cc3ccccc3[nH]2)nc2ccccc21 (configuration not stated) 14.1 µM [activator, single point]
CCCC(=O)NC(c1ccccc1)c1ccc2cccnc2c1O (configuration not stated) 35.5 µM [activator, single point]
CC(C)(C)c1ccc(CC(=O)N2CCC2(C)C(=O)NCc2ccc3c(c2)OCO3)cc1 (configuration not stated) 31.6 µM [activator, single point]
Cc1cc(C)n2c(NC3CCCC3)c(-c3cc4ccccc4o3)nc2n1 25.1 µM [activator, single point]
CCc1ccc(NS(=O)(=O)c2cccc3nsnc23)cc1 25.1 µM [activator, single point]
CCOC(=O)C(=O)Cc1nc2ccccc2s1 22.4 µM [activator, single point]
Cc1cc(Br)ccc1NC(=O)CN1C(=O)C2C3CC(c4ccccc4)C(C3)C2C1=O (configuration not stated) 22.4 µM [activator, single point]
Cc1ccc(C(=O)N2CCCCC2)cc1S(=O)(=O)N1CCCCCC1 6.31 µM [activator, single point]
O=C(OCn1nnc2ccccc2c1=O)C1CCCCC1 3.16 µM [activator, single point]
CC1(C)C=Cc2cc3ccc(=O)oc3cc2O1 5.62 µM [activator, single point]
COC(=O)[C@@]12C[C@@H](CC(=O)NCCCCc3ccccc3)C(=O)N(Cc3ccccc3)C1=CCC(C)(C)C2 31.6 µM [activator, single point]
N/C(=N\OC(=O)c1cccc2ccccc12)c1ccncc1 14.1 µM [activator, single point]
O=C(CSc1nnc(-c2ccc(Cl)cc2)n1Cc1ccco1)c1cccs1 10 µM [activator, partial curve]
C[C@H](CO)N1C[C@H](C)[C@@H](CN(C)S(=O)(=O)c2ccc(F)cc2)Oc2ccc(NC(=O)Nc3ccc4c(c3)OCO4)cc2C1=O 3.98 µM [activator, single point]
COc1ccc(N/N=C(\C#N)C(N)=O)cc1 2.51 µM [activator, single point]
CCOC(=O)C1=C(N)Oc2cc(O)ccc2C1c1ccc(Br)cc1 (configuration not stated) 35.5 µM [activator, single point]
Cc1cc(C)cc(NC(=O)C2CCCN2S(=O)(=O)c2ccc3c(c2)n(C)c(=O)c(=O)n3C)c1 (configuration not stated) 3.98 µM [activator, single point]
COc1ccccc1C(=O)CC(=O)C(=O)Nc1cccc([N+](=O)[O-])c1C 3.16 µM [activator, single point]
COc1ccc(-c2ccc(=O)n(Cc3cccc(Cl)c3)n2)cc1 31.6 µM [activator, single point]
CC(CCc1ccccc1)NC(=O)C(=O)NCCO (configuration not stated) 35.5 µM [activator, single point]
Cc1ccc2nc(NCc3ccccc3)c(C#N)cc2c1 35.5 µM [activator, single point]
N#Cc1nc(N(c2ccccc2)c2ccccc2)nc(-n2cccc2)n1 31.6 µM [activator, single point]
CCCOc1ccc(C(=O)NNC(=S)NC(=O)c2cc(-c3ccccc3)nc3ccccc23)cc1 28.2 µM [activator, single point]
CCN(C(=O)COC(=O)c1ccco1)c1cccc2ccccc12 20 µM [activator, single point]
CCC(C)[C@H]1CNC(=S)N1CCc1cccc2ccccc12 (some centres not stated) 15.8 µM [activator, single point]
COc1ccc(N=C2SC(CC(=O)Nc3cccc(Cl)c3)C(=O)N2Cc2ccco2)cc1 (configuration not stated) 14.1 µM [activator, partial curve]
CCOP(=O)(OCC)c1nc(-c2ccc(Cl)cc2Cl)oc1N1CCCCC1 22.4 µM [activator, single point]
O=[N+]([O-])c1ccc2c(c1)CO[C@@]21O[C@H](CCO)C[C@H](O)[C@H]1O 35.5 µM [activator, single point]
Cc1ccc2c(c1)N(S(=O)(=O)c1ccc(CN3C(=O)c4cccnc4C3=O)s1)CCO2 31.6 µM [activator, single point]
O=C(COc1ccccc1)Nc1nnc(C23CC4CC(CC(C4)C2)C3)s1 20 µM [activator, single point]
CCOC(=O)C1CCCN(C(=S)Nc2ccc(Nc3ccccc3)cc2)C1 (configuration not stated) 31.6 µM [activator, single point]
Cc1ccccc1OS(=O)(=O)c1cccc([N+](=O)[O-])c1 3.98 µM [activator, single point]
O=C(O)CCCCCCCCCCC1CCC(O)C1O (configuration not stated) 12.6 µM [activator, partial curve]
COc1cc(NC(=O)c2cnc(N)o2)cc(C(=O)Nc2cccc(C(F)(F)F)c2)c1 35.5 µM [activator, single point]
COc1ccc(Cl)cc1NC(=O)CN1C(=O)NC2(CCCC2)C1=O 3.98 µM [activator, single point]
CC1=CC2=NC(=O)/C(=C\c3cccn3CCOc3cccc(C)c3)C(=N)N2O1 20 µM [activator, partial curve]
CC(C)N(C(=O)[C@H]1CC(CC(=O)NCc2cccc(C(F)(F)F)c2)C(=O)N2CCc3c([nH]c4ccccc34)[C@]12C)C(C)C (some centres not stated) 28.2 µM [activator, single point]
COc1cccc(NC(=O)CN2C(=O)CC(c3ccco3)Sc3ccccc32)c1 (configuration not stated) 15.8 µM [activator, single point]
CCCCOc1ccc(C(=O)NNC(=O)c2cnccn2)cc1OC 25.1 µM [activator, single point]
CCCCC(=O)NC(c1ccco1)c1cc(Cl)c2cccnc2c1O (configuration not stated) 22.4 µM [activator, single point]
CCOC(=O)c1ccc(-c2ccc3c(=O)c4ccccc4n(C)c3c2)cc1F 35.5 µM [activator, single point]
Cc1[nH]c(C(=O)N/N=C/c2ccc(N(C)C)cc2)c(C)c1C(=O)N/N=C/c1ccc(N(C)C)cc1 5.62 µM [activator, single point]

Growth rescue (activation), inconclusive:
C=C1C(=O)[C@]23C[C@H]1CCC2[C@]1(C)CCC[C@@](C)(C(=O)O)C1C[C@@H]3O (some centres not stated) -81.5% [activator]

Growth rescue (activation), inactive:
CC(=O)c1ccc(NC(=O)c2ccc3nc(C)sc3c2)cc1 -7.53%
c1ccc(Sc2ncnc3ccccc23)cc1 8.94%
C#CCO[C@@H]1C[C@H](n2cnc3c(NC(=O)c4ccccc4)ncnc32)O[C@@H]1CO -3.16%
CC(Nc1oc(-c2ccco2)nc1C#N)c1ccccc1 (configuration not stated) -15.1%
CC(C)CC(NC(=O)C(NC(=O)OC(C)(C)C)C(C)C)C(N)=O (configuration not stated) 2.04%
Cc1nc(Oc2ccccc2)c2oc3ccccc3c2n1 3.32%
C=CC[C@H](CC(=O)N(CCO)Cc1ccccc1)C(=O)N[C@H](COC(=O)[C@@H](CC=C)CC(=O)OC(C)(C)C)Cc1ccccc1 -2.21%
OCc1cn(-c2ccccc2)nc1-c1cc2ccccc2o1 7.49%
O=C(NCc1cccs1)Nc1cccs1 2.03%
CN1CCN(C(=O)C2CCCN(S(=O)(=O)c3ccc(Cl)cc3)C2)CC1 (configuration not stated) -5.85%
O=C(Oc1cc2oc(=O)cc(-c3ccccc3)c2cc1Cl)C1CCCCC1 4.41%
Cc1ccc(C2C=CC(C#N)=CN2Cc2ccccc2)cc1 (configuration not stated) 0.496%
CC(=O)c1sc2nc(-c3ccc(C)cc3)c3c(c2c1N)CCCC3 1.46%
Oc1ccccc1-c1nc(NCC2CCCO2)c2ccccc2n1 (configuration not stated) -8.9%
COc1ccc(-c2sc3ccc(OC)cc3c2C#Cc2cncn2C)cc1 -48%
CSc1ncccc1C(=O)N1CCCC(N2CCN(c3ccccc3F)CC2)C1 (configuration not stated) 1.19%
O=C(c1ccc(COc2c(F)c(F)cc(F)c2F)o1)N1CCN(c2ccccc2)CC1 3.49%
c1ccc(-c2nnsc2-c2ccccc2)cc1 2.94%
COCC(=O)N/N=C/c1ccc(Sc2nc3ccccc3s2)o1 13.2%
COCc1nc(-c2ccc(-c3ccc(C)cc3)nc2OC)no1 -1.85%
O=C(OCCc1cc2ccccc2c(=O)o1)c1cccs1 -0.17%
COc1ccc(Cl)cc1Nc1nc(N)c2ccccc2n1 -8.82%
O=C(Nc1c(-c2ccc3c(c2)OCO3)[nH][nH]c1=O)c1cccc(C(F)(F)F)c1 5.49%
